Measurements taken from patent US12145987B2, “Method for depleting cytotoxic T cells using an anti-LAG-3 antibody composition” (Daiichi Sankyo Company, Limited, priority 2017, dated 2024).

B1: hLA212_H4/L2: defucosylated humanized antibody; heavy chain positions 20 to 470 of SEQ ID No: 30, light chain positions 21 to 234 of SEQ ID No: 34 (antibody)
heavy: EVQLVESGGGLVQPGGSLRLSCAASGFTYRSYVMAWVRQAPGKGLEWVASISTGGGNTYYRDSVKGRFTISRDNAKNTLYLQMDSLRAEDTAVYYCAEDMSNSGYGLFDYWGQGTLVTVSSASTKGPSVFPLAPSSKSTSGGTAALGCLVKDYFPEPVTVSWNSGALTSGVHTFPAVLQSSGLYSLSSVVTVPSSSLGTQTYICNVNHKPSNTKVDKRV[left out - human IgG1 Fc]
light: DIQMTQSPSSLSASVGDRVTITCKAGQNVDNNIAWYQQKPGQSPKLLIYYASNRNTGVPSRFSGSGYGTDFTLTISSLQPEDFATYYCQRISNSPYTFGQGTKVEIKRTVAAPSVFIFPPSDEQLKSGTASVVCLLNNFYPREAKVQWKVDNALQSGNSQESVTEQDSKDSTYSLSSTLTLSKADYEKHKVYACEVTHQGLSSPVTKSFNRGEC
B2: hLA212_H3/L2: humanized antibody; heavy chain positions 20 to 470 of SEQ ID No: 30, light chain positions 21 to 234 of SEQ ID No: 34 (antibody)
heavy: B1 heavy
light: B1 light

Legend:
CD57 positive T cells = experiment: CD57 positive T cell number after CD3/CD28 stimulation of human PBMCs for 4 days, flow cytometry; type: cell-based
Experimental: PBMCs were separated from human peripheral blood by Ficoll centrifugation and added to a 96-well U-bottom microplate in an amount of 4×10^5 cells/well. Human IL-2 (PeproTech, Inc., final concentration: 100 ng/mL) and Dynabeads Human T-Activator CD3/CD28 (Life Technologies Corp., 4×105 beads/well) were added thereto, and T cells were activated by culture for 4 days. The obtained cells were recovered, suspended in a FACS buffer (PBS, 0.1% BSA, and 0.1% sodium azide), and then reacted with Human BD Fc Block (Becton, Dickinson and Company) at room temperature for 10 minutes. Subsequently, the cell surface was stained by reaction at 4° C. for 30 minutes with fluorescently labeled antibodies diluted with a FACS buffer containing a LIVE/DEAD Fixable Dead Cell Stain Kit-near-IR fluorescent reactive dye (manufactured by Invitrogen Corp.), followed by washing with a FACS buffer. The fluorescently labeled antibodies used were various combinations of a FITC-labeled anti-human CD8 antibody, a PerCP-Cy5.5-labeled anti-human CD3 antibody, an APC-labeled anti-human CD28 antibody, and a Pacific Blue-labeled anti-human CD57 antibody (all from Becton, Dickinson and Company), a PE-labeled anti-human CD28 antibody (BioLegend, Inc.), and an anti-human LAG-3 antibody and an isotype control antibody labeled using a PE labeling kit (Dojindo Laboratories). […] The data was analyzed using FlowJo (manufactured by Tree Star Inc). After removal of the LIVE/DEAD Fixable Dead Cell Stain Kit-near-IR fluorescent reactive dye-positive dead cells by gating, only the living cells were analyzed by further gating CD3 positive and CD8 positive CD8 T cells.
The effect of the humanized anti-human LAG-3 antibody hLA212_H4/L2, the calcineurin inhibitor tacrolimus, and the corticosteroid dexamethasone on CD28 negative T cells and CD57 positive T cells was investigated in the assay system of Example 13. […] Out of the living cells, a CD3 positive and CD8 negative fraction and a CD3 positive and CD8 positive fraction were analyzed as CD4 T cells and CD8 T cells, respectively.

[1] = system: 293T-lacZ cells expressing human LAG-3; experiment: In vitro ADCC assay, human PBMC effector cells, β-galactosidase release; type: cell-based; details: target 293T-lacZ/hLAG-3 cells, effector human PBMCs, percentage of cells lysed
Experimental: 293FT cells (Invitrogen Corp.) were transfected with pLenti6/V5-GW/lacZ, and ViraPower™ Packaging Mix (Invitrogen Corp.) according to the accompanying protocols to prepare a recombinant lentivirus to express the β-galactosidase gene. 293T cells were infected by the obtained recombinant lentivirus according to the protocol of ViraPower Lentiviral Expression Systems (Invitrogen Corp). Virus-infected cells were selected using 10 μg/mL blasticidin (Invitrogen Corp.) to obtain a line stably expressing β-galactosidase. An expression plasmid of the full-length human LAG-3 was introduced into the 293T cells stably expressing β-galactosidase (hereinafter, referred to as 293T-lacZ) using Lipofectamine 2000 (manufactured by Invitrogen Corp.), and the cells were cultured for 1 day and then dissociated and recovered using TrypLExpress (manufactured by Invitrogen Corp). The cells were washed twice with phenol red-free RPMI1640 containing 5% FBS (hereinafter, referred to as a “medium for ADCC”). The number of live cells was counted by the trypan blue dye exclusion test. The cells were resuspended to 1×10^5 cells/ml in a medium for ADCC and used as target cells.
PBMCs were separated from human peripheral blood by Ficoll centrifugation, and a suspension adjusted to a live cell density of 1.2×10^6 cells/mL in a medium for ADCC was used as effector cells.
The ADCC activity of the purified rat anti-human LAG-3 antibodies rLA204, rLA212, rLA225, rLA869, and rLA1264 was investigated by the following method. To a 96-well U-bottom microplate containing 50 μL/well of the antibody solution, was added 50 μL/well of the target cells (which will be hereinafter referred to as 293T-lacZ/hLAG-3 cells) of Example 1)-5-1, followed by standing at 4° C. for 30 minutes. Then, 75 μL/well of effector cells prepared as in Example 1)-5-2 (which was however suspended to 2×10^6 cells/mL) was added thereto, followed by centrifugation at room temperature at 1200 rpm for 5 minutes, and thereafter the cells were cultured overnight under conditions of 37° C. and 5% CO2. On the next day, 50 μl of the supernatant was recovered into a black plate (manufactured by Corning Inc). A solution of β-Glo assay system (manufactured by Promega Corp.) was added thereto at 50 μl/well. The luminescence intensity was measured using a plate reader (ENVISION; manufactured by PerkinElmer, Inc). The percentage of cells lysed by ADCC activity was calculated according to the following formula. Percentage of cells lysed (%)=(A−B)/(C−B)×100 • A: Count of each sample well • B: Average of spontaneous release (wells without antibody added) counts (n=3)
When adding the antibody, 50 μL of a medium for ADCC was added thereto. Except for that, the same operation as in the sample well was performed.
C: Average of maximum release (wells containing target cells lysed with a surfactant) counts (n=3)
When adding the antibody and adding the effector cells, 50 μL and 75 μL of a medium for ADCC were added thereto respectively. For the assay, 175 μl of the β-Glo assay system solution was added to each well containing the target cells and mixed therewith. A 100 μl aliquot thereof was added to a black plate to carry out the assay.
The ADCC activity of the humanized anti-human LAG-3 antibodies (hLA212) was investigated by the method described in Example 2)-2.
The in vitro ADCC activity of the humanized anti-human LAG-3 antibody hLA212_H4/L2 was evaluated by the method described in Example 7)-2.

| Molecule | number of CD57 positive CD8 T cells (CD57 positive T cells; hLA212_H4/L2 10, 1, 0.1 μg/mL (effect concentration dependent), tacrolimus 10 nM, dexamethasone 1 μM, 4 days, two donors) | number of CD57 positive CD4 T cells (CD57 positive T cells; hLA212_H4/L2 10, 1, 0.1 μg/mL, tacrolimus 10 nM, dexamethasone 1 μM, 4 days, two donors) | ADCC activity on cells expressing human LAG-3 [1] | number of CD57 positive T cells (CD57 positive T cells; antibodies not in a low fucose form, more weakly than hLA212_H4/L2, data not shown) |
| --- | --- | --- | --- | --- |
| B1 | evidently reduced | reduced the number of CD57 positive CD4 T cells, albeit not as remarkably as observed in the CD57 positive CD8 T cells | concentration-dependent ADCC activity | – |
| B2 | – | – | concentration-dependent ADCC activity against the 293T-lacZ cells expressing human LAG-3, almost comparable to the human chimeric anti-LAG-3 antibody cLA212 | tendency to reduce |
